Laboratory results taken from the supplement of paper PMC11417369.
This is one part of the list.

Each sequence was assayed on PF3D7_0420300 AP2 domain 1 (GST-tagged) (assay: gcPBM binding intensity (ln(normalized median fluorescence intensity)); higher = stronger DNA binding).
In short: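 Binding intensity values are the highest Masliner-normalised natural-log median intensity among replicate spots of either probe orientation. The binding step lasted 1 h in 1× PBS with 1% milk, 0.2 mg/ml BSA, 0.5% salmon testes DNA and 0.03% Triton X-100, using GST-tagged P. falciparum DNA-binding domains expressed in E. coli on an Agilent 4 × 180k array of primer-extended double-stranded 36-bp intergenic genomic probes plus negative controls. Alexa488 anti-GST antibody and a 488 nm scan detected bound protein.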

Sequence	gcPBM binding intensity (ln)
GTAAATACACATATGTGTACATATATATATATATAT [XGTACX_site3696]	9.44
GTGGCTACTATATATTGTACGATATTATATATATAC [XGTACX_site8376]	9.32
GGTTCATTAAAGTGTACACATAAATACCGTAACATT [CACACA_site6002]	9.31
CTAAGGTATGATTAATCACACACATAAATATATATA [CACACA_site8847]	9.44
ACCATATAAATAAACACACACACACCCATATATATA [CACACA_site2321]	10.2
TATATATCTATATTTACACACAGTTACTATGTAGAT [CACACA_site7532]	9.54
GTTAAACTTAATATCGGTACACACACAAGATAAGAA [XGTACX_site1660]	9.92
ATAATATGTATAATCACACATTTTTCTTTTAAGACA [CACACA_site5297]	9.13
GTAAGAATATTTATAAATGTATAATTTGTATTATTT [GTGCAC_negctrl_site667]	9.22
ATCGAAATTTTAGAATATATATGATGTTACTTAAGT [GTGCAC_negctrl_site611]	9.11
TAAAATATCATAGATAGTACATATAACGTTTTATAT [XGTACX_site5666]	9.26
CATGACATAAAAAATATACACACTATAATATATATA [CACACA_site1402]	9.51
AAATATATTATATTTAGTACGCATATATAATATGCA [XGTACX_site4835]	8.94
ATGAAAATTTATATTGCACACATAGGGAATAAAAAA [CACACA_site8667]	9.46
AGTTAATTAATAGGCACACATATATATGTATAAATA [CACACA_site523]	9.41
ATATATATACATATAACACACACATATATATATATA [CACACA_site8827]	9.58
TTGTATTTATTTATGGGAGGATTATAATCATTGTAG [GTGCAC_negctrl_site268]	9.18
TAATTCACATTTTATACACACATTCGAACCTTTTTT [CACACA_site3341]	9.62
TATAGATATATACGGTGTACATACATAAAAAAAAAA [XGTACX_site1648]	9.27
ATTTTTATTAGTTATTGTACTTATTATTTATTAATT [XGTACX_site2568]	9.58
TATAGTCAACTAGTCACACATATAATTATATATATA [CACACA_site5872]	9.22
TATAAAGAAATCATTACACACAAATAAATACATACA [CACACA_site2675]	9.88

Sequence	gcPBM binding intensity (ln)
TATTTTTTTTGTCATATATAAGAAACGCTCTTCTTT [TGCATGCA_negctrl_site127]	9.07
ATATTTATATTTTCATGTACGTATTTTTATATATAT [XGTACX_site8478]	9.65
TGCATTATATTAAATTTTTTATTTGTTGATGTTATA [GTGCAC_negctrl_site371]	9.25
TGAAATAAAATTTGTACACACATATTTATTTATATA [CACACA_site6421]	9.28
AAATAAAAGATATTTTTACACACTTTTGATGAGATC [CACACA_site9000]	9.23
CACAAGAAAATTCACACACACACATATATATATATA [CACACA_site3880]	9.98
TCCTTAATTCAAAAAATAATATCTTATATTTCAAAT [CACACA_negctrl_site1592]	8.72
GGAATAAAGACAGCACGTACATATCTTACGAAGCTC [XGTACX_site3918]	9.28
GGTTAGACGAAATATACATGCAATGGAAAATAAGTT [TGCATGCA_site23]	9.48
ATATTAATTTCTCATGCATGTTCTTCCCAATTGTAA [TGCATGCA_site425]	9.45
TCATCATGTATGTACACACATACATATATTATGTAC [CACACA_site1386]	9.44
CTTTTTGAAATATTAACACACATTTTGTTAATGAAT [CACACA_site6087]	9.23
TATAAGTAGATAAGGGTGCACAATATAAATATATAG	9.51
TTGTACATCTTTTGCACACGTAATGTTATTAAAATA [CACACA_site4827]	9.35
TGTATATTTGTTGTTACACACATATATTTTTTTTTT [CACACA_site128]	9.55
TTAACTATAATAAAATGTACATATGTAACATATATA [XGTACX_site7790]	9.18
AGGTCCTACACCAATAAATATCATATATATATTATA [CACACA_negctrl_site568]	9.19
TTATAACAAAAAATTAAAGAAAGAGAATAAGTGAAA [CACACA_negctrl_site975]	9.43
TATGGAAGAAAATATACACACAAAAAAAAAAAATGG [CACACA_site4924]	9.96
ATGATTTTTTTTATTTTTTAGCTAGAGCTAGCTTAT [CACACA_negctrl_site433]	9.01
ATATGTTAAAAATTCACACAAAAAAGTATACAGATA [CACACA_site4179]	9.53
TATGAATGCTTTTATGCACACGTACAAAAATATTAT [CACACA_site8851]	9.21
